Source: PubChem BioAssay AID488969 (Vanderbilt High Throughput Screening Facility, 2010)
Over roughly 110,000 compounds, “z-score” has its median near -0.1; the highest 2% begin near 2. The list shows a part of the results. Active and inactive are the calls of the source.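 Rule for the calls: active = z-score in the third read window above 3 or below -3; inactive = the rest.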

These compounds were tested against Metabotropic glutamate receptor 8 (Rattus norvegicus) (UniProt P70579) (assay: mGluR8 Gi/Go-coupled signaling modulation – cell-based, rat, thallium flux, HTS, primary screen (AID 488969)). Conditions: HEK293 rat mGluR8, GIRK (G protein-gated inwardly rectifying potassium channel) thallium flux, FluoZin2; at 10 µM; stronger effect = higher value; submaximal glutamate (EC20) added with thallium.
Chain of UniProt P70579 (P70579 whole entry, looked up): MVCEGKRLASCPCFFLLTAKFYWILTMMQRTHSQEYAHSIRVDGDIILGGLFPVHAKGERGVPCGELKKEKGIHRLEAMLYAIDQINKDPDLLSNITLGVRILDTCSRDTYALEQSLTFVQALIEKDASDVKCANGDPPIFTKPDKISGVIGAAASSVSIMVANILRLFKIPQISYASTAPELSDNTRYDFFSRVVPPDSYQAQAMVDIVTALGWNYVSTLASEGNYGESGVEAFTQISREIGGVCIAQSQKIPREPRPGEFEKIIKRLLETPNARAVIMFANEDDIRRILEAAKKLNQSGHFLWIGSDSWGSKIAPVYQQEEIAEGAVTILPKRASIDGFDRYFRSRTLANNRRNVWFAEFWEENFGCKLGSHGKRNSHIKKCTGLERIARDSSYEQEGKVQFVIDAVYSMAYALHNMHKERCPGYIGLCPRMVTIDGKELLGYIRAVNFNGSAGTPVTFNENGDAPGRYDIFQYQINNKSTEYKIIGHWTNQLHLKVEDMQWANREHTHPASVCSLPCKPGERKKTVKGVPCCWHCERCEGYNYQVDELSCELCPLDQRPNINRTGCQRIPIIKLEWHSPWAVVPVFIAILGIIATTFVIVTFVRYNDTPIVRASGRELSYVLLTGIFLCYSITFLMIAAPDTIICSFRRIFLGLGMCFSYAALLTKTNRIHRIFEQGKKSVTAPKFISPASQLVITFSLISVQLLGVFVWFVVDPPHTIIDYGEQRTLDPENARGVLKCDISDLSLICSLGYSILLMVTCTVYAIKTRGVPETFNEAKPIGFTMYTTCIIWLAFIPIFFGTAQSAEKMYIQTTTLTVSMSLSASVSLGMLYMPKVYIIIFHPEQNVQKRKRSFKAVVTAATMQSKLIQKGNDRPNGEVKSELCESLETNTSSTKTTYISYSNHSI

Q: Which z-score does the source give for `O=C(Cc1c(C(=O)O)[nH]c2ccc(Cl)cc12)Nc1ccc2c(c1)OCCO2` here?
A: 0.0508

Q: For `N#C/C(=C(/O)CN1C(=O)c2ccccc2C1=O)c1nc2ccccc2[nH]1`, which z-score is on record?
A: -0.113

Q: With `COc1ccccc1CNCC(O)Cn1c2ccccc2c2ccccc21` (stereo not given) as the compound, how does the z-score read?
A: 0.425

Q: How did the z-score turn out when `CC(CO)(CO)NCc1ccc(-c2ccccc2)cc1` was run?
A: 0.171

Q: For `Cc1ccc(S(=O)(=O)N2CCCC2C(=O)Nc2nc3c(s2)CCCC3)cc1` (stereo not given), which z-score is on record?
A: -0.735

Q: For `Cc1cccc(N2CCN(S(=O)(=O)c3ccc4c(c3)CCC(=O)N4)CC2C)c1` (stereo not given), which z-score is on record?
A: -0.531

Q: Which z-score does the source give for `O=C(CCn1cnc2ccccc2c1=O)Nc1ccc(S(=O)(=O)N2CCCCC2)cc1` here?
A: -0.448

Q: With `O=Cc1cc2ccccc2nc1SCc1ccc(Cl)cc1` as the compound, how does the z-score read?
A: -0.116

Q: `COc1ccc(S(=O)(=O)N2Cc3ccccc3CC2C(=O)O)cc1OC` (stereo not given) was tested. Which z-score did it give?
A: -0.354

Q: For `O=S(=O)(N/N=C/c1cn(Cc2ccccc2)c2ccccc12)c1ccccc1`, which z-score is on record?
A: -0.216

Q: Which z-score does the source give for `COC(=O)C1CCN(C(=O)COc2cc3sc(C)nc3c3sccc23)CC1` here?
A: -1.34

Q: With `C=CCN=Cc1sc2ccc(OCC)cc2c1O` as the compound, how does the z-score read?
A: 0.0996

Q: How did the z-score turn out when `Cc1cc(-c2n[nH]c(=S)n2/N=C/c2ccc(Br)s2)n[nH]1` was run?
A: active: 4.55

Q: Which z-score does the source give for `COc1ccccc1NC(=O)CSc1nnc(C)n1CCc1ccccc1` here?
A: -0.918

Q: `CS(=O)(=O)N1CCC(C(=O)Nc2ccccc2Sc2ccccc2)CC1` was tested. Which z-score did it give?
A: 0.457

Q: With `Cc1ccc(S(=O)(=O)NCC2CCC(C(=O)NCc3ccco3)CC2)cc1` (stereo not given) as the compound, how does the z-score read?
A: -0.0755

Q: Which z-score does the source give for `Cc1sc(N/N=C/C=C/c2ccccc2)nc1-c1ccccc1` here?
A: 2.08e-05

Q: For `CN(C)S(=O)(=O)c1ccc(C(=O)OCC(=O)Nc2ccccc2OC(F)F)cc1`, which z-score is on record?
A: -0.187

Q: How did the z-score turn out when `O=C(NCCCNCCCNC(=O)c1ccccn1)c1ccccn1` was run?
A: -0.485

Q: How did the z-score turn out when `O=C(CSc1ccc2ccccc2c1Br)Nc1cccc(S(=O)(=O)NC2=NCCCCC2)c1` was run?
A: active: 14.5

Q: Which z-score does the source give for `O=C(c1cnn2c1NC(c1ccc(Br)cc1)CC2C(F)(F)F)N1CCN2CCCC2C1` (stereo not given) here?
A: 0.508

Q: Which z-score does the source give for `COc1ccc(OC)c(-n2nnnc2SCC(=O)Nc2nc(C)c(C)s2)c1` here?
A: 0.197

Q: With `CC(C)(C)CC(=O)Nc1ccc(Nc2ccccc2)cc1` as the compound, how does the z-score read?
A: -0.312

Q: Which z-score does the source give for `CCN(CC)C(=O)CN(C#N)c1nc(NC(C)C)nc(NC(C)C)n1` here?
A: 0.172

Q: With `COC(=O)c1ccc(C2C(Oc3ccc(OC)cc3)C(=O)N2CCc2ccc(F)cc2)cc1` (stereo not given) as the compound, how does the z-score read?
A: -0.263

Q: For `O=C(c1ccc(Cl)s1)N1CCCC1`, which z-score is on record?
A: 0.0802

Q: Which z-score does the source give for `CC(=O)NC(c1ccco1)c1ccc2cccnc2c1O` (stereo not given) here?
A: -0.271

Q: For `O=C(COc1ccc2c(c1)CCC2)NCc1ccc(Cl)cc1`, which z-score is on record?
A: -0.106

Q: How did the z-score turn out when `COc1ccc(NC(=O)C(Sc2ccccc2)c2ccccc2)c(OC)c1` (stereo not given) was run?
A: 2.25

Q: How did the z-score turn out when `O=C(Nc1cn(-c2ccccc2)nc1-c1ccc(F)cc1)c1ccccc1` was run?
A: -0.338

Q: `CN(C)c1ccc(N/C=C/C(=O)C(C)(C)C)cc1` was tested. Which z-score did it give?
A: -0.351

Q: `O=C(Nc1ccccc1-c1ccccc1)C1CCCN(c2ncccn2)C1` (stereo not given) was tested. Which z-score did it give?
A: -1.07

Q: With `Cc1cc(C)cc(NC(=O)c2ccc(S(=O)(=O)C(F)F)cc2)c1` as the compound, how does the z-score read?
A: -0.06

Q: `Cc1ccc(N(Cc2ccc([N+](=O)[O-])cc2)C(=O)c2ccco2)cc1` was tested. Which z-score did it give?
A: -0.563

Q: Which z-score does the source give for `CC(C)(C)c1ccc(-c2nnc(NC(=O)c3ccccc3)s2)cc1` here?
A: 0.203

Q: Which z-score does the source give for `COc1ccc2nc(N3CCCC(C(=O)NCCCN4CCN(C)CC4)C3)sc2c1` (stereo not given) here?
A: 0.495

Q: How did the z-score turn out when `CCOc1ccc(OCC)c(NS(=O)(=O)c2ccc3c(c2)n(C)c(=O)c(=O)n3C)c1` was run?
A: 0.166

Q: With `CCOC(=O)C1=C(C)NC2=C(C(=O)CCC2)C1c1ccsc1` (stereo not given) as the compound, how does the z-score read?
A: -0.544

Q: Which z-score does the source give for `N#Cc1ccc(N/N=C/c2cn(-c3ccccc3)nc2-c2ccccc2)c([N+](=O)[O-])c1` here?
A: -0.163

Q: `O=C(c1cc2ccccc2oc1=O)N(Cc1cccs1)C1CCS(=O)(=O)C1` (stereo not given) was tested. Which z-score did it give?
A: -0.217

Q: For `CCOC(=O)Cn1c(=O)oc2cc(S(=O)(=O)N3CCc4ccccc43)ccc21`, which z-score is on record?
A: -0.295

Q: `COC(=O)c1ccc(-n2cncn2)c(F)c1` was tested. Which z-score did it give?
A: 0.26

Q: Which z-score does the source give for `COc1ccc2nc(-c3ccccc3)cc(OC)c2c1` here?
A: -0.624

Q: How did the z-score turn out when `Oc1c(C(c2ccccc2)N2CCc3ccccc3C2)sc2ncnn12` (stereo not given) was run?
A: 0.127

Q: How did the z-score turn out when `C[n+]1ccccc1C1CCCC/C1=N\Nc1ccc([N+](=O)[O-])cc1[N+](=O)[O-]` (stereo not given) was run?
A: -0.113

Q: Which z-score does the source give for `NS(=O)(=O)c1cccc(NC(=O)CSc2ncc(C(F)(F)F)cc2Cl)c1` here?
A: 0.0638

Q: For `Cc1ccc(C)c(Cn2nnc3c(=O)[nH]c(C4CCN(C(=O)c5cccs5)CC4)nc32)c1`, which z-score is on record?
A: -0.45

Q: How did the z-score turn out when `CC(C)C(NC(=O)CSc1ccc(Cl)cc1)C(C)C` was run?
A: 0.0234

Q: For `Cc1cccc(C(=O)NC(=S)NCc2cccnc2)c1`, which z-score is on record?
A: 0.247

Q: Which z-score does the source give for `Cc1cccc(Nc2c([N+](=O)[O-])c(=O)n(C)c3ccccc23)c1` here?
A: -0.787

Q: Which z-score does the source give for `CCOC(=O)N1C=CC(C)=C[C@@H]2[C@@H](N3C(=O)c4ccccc4C3=O)C(=O)N21` here?
A: -0.466

Q: How did the z-score turn out when `CCCCNC(=O)CN(CCc1ccccc1)S(C)(=O)=O` was run?
A: -0.0858

Q: Which z-score does the source give for `Cc1ccn2cc(CNS(=O)(=O)c3ccc(Cl)s3)nc2c1` here?
A: -0.172

Q: For `COc1ccc(-c2nc(CN3CCCC(C(=O)NC4CCCC4)C3)c(C)o2)cc1` (stereo not given), which z-score is on record?
A: -0.473

Q: `CCCCN1C(=O)C(=O)N(c2ccccc2)C1=S` was tested. Which z-score did it give?
A: -0.31
